In the supplement of paper PMC8728848:
The other results are listed elsewhere or left out.

Tests used:
Assay in all cases: glycan array binding signal (z-score within array); higher = stronger binding
Conditions in all cases: glycan notation: IUPAC condensed, linker removed
[1] = biological target: GlcNAc(b1-3)Gal(b1-4)GlcNAc(b1-3)Gal(b1-4)GlcNAc(b1-2)Man(a1-3)[GlcNAc(b1-3)Gal(b1-4)GlcNAc(b1-3)Gal(b1-4)GlcNAc(b1-2)Man(a1-6)]Man(b1-4)GlcNAc(b1-4)[Fuc(a1-6)]GlcNAc
In short: (§1)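 Arrays were curated from the Consortium for Functional Glycomics database, 3228 in total, and kept only where the protein sequence was available. Binding is expressed as a within-array Z-score. This score was averaged across arrays of the same protein sequence at different concentrations or buffers and across linkers, and negative values can be read as non-binding.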

[2] = biological target: GlcNAc(b1-3)Gal(b1-4)GlcNAc(b1-3)Gal(b1-4)GlcNAc(b1-2)[GlcNAc(b1-3)Gal(b1-4)GlcNAc(b1-3)Gal(b1-4)GlcNAc(b1-6)]Man(a1-6)[GlcNAc(b1-3)Gal(b1-4)GlcNAc(b1-3)Gal(b1-4)GlcNAc(b1-2)Man(a1-3)]Man(b1-4)GlcNAc(b1-4)[Fuc(a1-6)]GlcNAc
In short: as §1

[3] = biological target: GlcNAc(b1-3)Gal(b1-4)GlcNAc(b1-3)Gal(b1-4)GlcNAc(b1-3)Gal(b1-4)GlcNAc(b1-2)Man(a1-3)[GlcNAc(b1-3)Gal(b1-4)GlcNAc(b1-3)Gal(b1-4)GlcNAc(b1-3)Gal(b1-4)GlcNAc(b1-2)Man(a1-6)]Man(b1-4)GlcNAc(b1-4)GlcNAc
In short: as §1

[4] = biological target: GlcNAc(b1-3)Gal(b1-4)GlcNAc(b1-3)Gal(b1-4)GlcNAc(b1-3)Gal(b1-4)GlcNAc(b1-2)Man(a1-3)[GlcNAc(b1-3)Gal(b1-4)GlcNAc(b1-3)Gal(b1-4)GlcNAc(b1-3)Gal(b1-4)GlcNAc(b1-2)Man(a1-6)]Man(b1-4)GlcNAc(b1-4)[Fuc(a1-6)]GlcNAc
In short: as §1

[5] = biological target: GlcNAc(b1-3)Gal(b1-4)GlcNAc(b1-3)Gal(b1-4)GlcNAc(b1-3)Gal(b1-4)GlcNAc(b1-2)[GlcNAc(b1-3)Gal(b1-4)GlcNAc(b1-3)Gal(b1-4)GlcNAc(b1-3)Gal(b1-4)GlcNAc(b1-6)]Man(a1-6)[GlcNAc(b1-3)Gal(b1-4)GlcNAc(b1-3)Gal(b1-4)GlcNAc(b1-3)Gal(b1-4)GlcNAc(b1-2)Man(a1-3)]Man(b1-4)GlcNAc(b1-4)[Fuc(a1-6)]GlcNAc
In short: as §1

[6] = biological target: GlcNAc(b1-3)Gal(b1-4)GlcNAc(b1-3)Gal(b1-4)GlcNAc(b1-3)Gal(b1-4)GlcNAc(b1-3)Gal(b1-4)GlcNAc(b1-2)Man(a1-3)[GlcNAc(b1-3)Gal(b1-4)GlcNAc(b1-3)Gal(b1-4)GlcNAc(b1-3)Gal(b1-4)GlcNAc(b1-3)Gal(b1-4)GlcNAc(b1-2)Man(a1-6)]Man(b1-4)GlcNAc(b1-4)GlcNAc
In short: as §1

[7] = biological target: GlcNAc(b1-3)Gal(b1-4)GlcNAc(b1-3)Gal(b1-4)GlcNAc(b1-3)Gal(b1-4)GlcNAc(b1-3)Gal(b1-4)GlcNAc(b1-2)Man(a1-3)[GlcNAc(b1-3)Gal(b1-4)GlcNAc(b1-3)Gal(b1-4)GlcNAc(b1-3)Gal(b1-4)GlcNAc(b1-3)Gal(b1-4)GlcNAc(b1-2)Man(a1-6)]Man(b1-4)GlcNAc(b1-4)[Fuc(a1-6)]GlcNAc
In short: as §1

[8] = biological target: GlcNAc(b1-3)Gal(b1-4)GlcNAc(b1-3)Gal(b1-4)GlcNAc(b1-3)Gal(b1-4)GlcNAc(b1-3)Gal(b1-4)GlcNAc(b1-2)[GlcNAc(b1-3)Gal(b1-4)GlcNAc(b1-3)Gal(b1-4)GlcNAc(b1-3)Gal(b1-4)GlcNAc(b1-3)Gal(b1-4)GlcNAc(b1-6)]Man(a1-6)[GlcNAc(b1-3)Gal(b1-4)GlcNAc(b1-3)Gal(b1-4)GlcNAc(b1-3)Gal(b1-4)GlcNAc(b1-3)Gal(b1-4)GlcNAc(b1-2)Man(a1-3)]Man(b1-4)GlcNAc(b1-4)[Fuc(a1-6)]GlcNAc
In short: as §1

[9] = biological target: GlcNAc(b1-3)Gal(b1-4)GlcNAc(b1-3)Gal(b1-4)GlcNAc(b1-3)GalNAc
In short: as §1

[10] = biological target: GlcNAc(b1-3)Gal(b1-4)GlcNAc(b1-3)GalNAc
In short: as §1

[11] = biological target: GlcNAc(b1-3)Gal(b1-4)GlcNAc(b1-3)[GlcNAc(b1-3)Gal(b1-4)GlcNAc(b1-3)]GalNAc
In short: as §1

[12] = biological target: GlcNAc(b1-3)Gal(b1-4)GlcNAc(b1-6)[Gal(b1-3)]GalNAc
In short: as §1

[13] = biological target: GlcNAc(b1-3)Gal(b1-4)GlcNAc(b1-6)[GlcNAc(b1-3)Gal(b1-3)]GalNAc
In short: as §1

[14] = biological target: GlcNAc(b1-3)Gal(b1-4)GlcNAc(b1-6)[GlcNAc(b1-3)]Gal(b1-4)GlcNAc
In short: as §1

[15] = biological target: GlcNAc(b1-3)GalNAc
In short: as §1

[16] = biological target: GlcNAc(b1-3)Man
In short: as §1

[17] = biological target: GlcNAc(b1-3)[GlcNAc(b1-4)][GlcNAc(b1-6)]GlcNAc
In short: as §1

[18] = biological target: GlcNAc(b1-3)[GlcNAc(b1-6)]Gal(b1-4)GlcNAc
In short: as §1

[19] = biological target: GlcNAc(b1-3)[GlcNAc(b1-6)]GalNAc
In short: as §1

[20] = biological target: GlcNAc(b1-4)Gal(b1-4)GlcNAc
In short: as §1

[21] = biological target: GlcNAc(b1-4)GlcNAc
In short: as §1

[22] = biological target: GlcNAc(b1-4)GlcNAc(b1-4)GlcNAc
In short: as §1

[23] = biological target: GlcNAc(b1-4)GlcNAc(b1-4)GlcNAc(b1-4)GlcNAc(b1-4)GlcNAc
In short: as §1

[24] = biological target: GlcNAc(b1-4)GlcNAc(b1-4)GlcNAc(b1-4)GlcNAc(b1-4)GlcNAc(b1-4)GlcNAc
In short: as §1

[25] = biological target: GlcNAc(b1-4)[GlcNAc(b1-6)]GalNAc
In short: as §1

[26] = biological target: GlcNAc(b1-6)Gal(b1-4)GlcNAc
In short: as §1

[27] = biological target: GlcNAc(b1-6)GalNAc
In short: as §1

[28] = biological target: GlcNAc6S(b1-3)Gal(b1-4)GlcNAc
In short: as §1

[29] = biological target: Kdn(a2-3)Gal(b1-3)GalNAc
In short: as §1

[30] = biological target: Kdn(a2-3)Gal(b1-3)GlcNAc
In short: as §1

[31] = biological target: Kdn(a2-3)Gal(b1-4)Glc
In short: as §1

[32] = biological target: Kdn(a2-3)Gal(b1-4)GlcNAc
In short: as §1

[33] = biological target: Kdn(a2-3)Gal(b1-4)[Fuc(a1-3)]GlcNAc
In short: as §1

[34] = biological target: Kdn(a2-6)Gal(b1-4)GlcNAc
In short: as §1

[35] = biological target: Man(a1-2)Man(a1-2)Man(a1-3)Man
In short: as §1

[36] = biological target: Man(a1-2)Man(a1-2)Man(a1-6)[Man(a1-3)]Man
In short: as §1

[37] = biological target: Man(a1-2)Man(a1-3)Man
In short: as §1

[38] = biological target: Man(a1-2)Man(a1-3)[Man(a1-2)Man(a1-6)]Man
In short: as §1

B1: GS13686A-pdi-553-26-553 (Parabacteroides distasonis) (protein)
chain: NENPDKPTDDVNYNMNEPRLASTLRGGLIIEGNVEQRLKPLQIDFYSQMTVDGGGWGTKNYIQDDEWNNLVWEEYLKQIASINIVIRSLTEKDKDAYANTIAFARIWRVYVHTLAADKFGPMPFPAYEIVEANPPYKSLKDIYDEYFRELDAAINGFNDSAQPIFSDAGIDLIYKNDVSKWKRFANSLRLRLAVRLTEVDQEKCIAEANAAISSPAGLISDKADNAYMPPKADGSWGQDYNYTMFQITWSGPICMSKSVEKLVTNIGGVAWPQGVVNQTSGVAVSSVHPEKVDPRAPKIFQPGIENGDWKGLVYGPKAEEANTGIYQSKQCAELGFIIKDGYPYKSRPYDLFLSEEVHFLKAELYARGFIAGDAKSEYEAGVRASFATWGVTSEVDDYLTSTEKNEAGTSARYDDQQGAGNTALEKIITQKYIAGIPDLAQEGWNDKRRLNLPRLDVAVYRDQAVYNNNDKDILKSANFIKRMRYPTKESLINATEYEKGKSMLGGKGDIVSTPLWWDKNSNYCTSSK
**Q.** With B1 as the binder, how does the “glycan array binding signal (z-score)” value [1] read?
**A.** 0.075

**Q.** And the “glycan array binding signal (z-score)” value [2]?
**A.** 0.282

**Q.** And the “glycan array binding signal (z-score)” value [3]?
**A.** 0.039

**Q.** And the “glycan array binding signal (z-score)” value [4]?
**A.** 0.14

**Q.** What about the “glycan array binding signal (z-score)” value [5] of the same binder?
**A.** 0.202

**Q.** And the “glycan array binding signal (z-score)” value [6]?
**A.** 0.144

**Q.** What about the “glycan array binding signal (z-score)” value [7] of the same binder?
**A.** 0.258

**Q.** And the “glycan array binding signal (z-score)” value [8]?
**A.** -0.077

**Q.** What about the “glycan array binding signal (z-score)” value [9] of the same binder?
**A.** -0.174

**Q.** What about the “glycan array binding signal (z-score)” value [10] of the same binder?
**A.** -0.214

**Q.** What about the “glycan array binding signal (z-score)” value [11] of the same binder?
**A.** 0.181

**Q.** And the “glycan array binding signal (z-score)” value [12]?
**A.** -0.309

**Q.** And the “glycan array binding signal (z-score)” value [13]?
**A.** 0.163

**Q.** And the “glycan array binding signal (z-score)” value [14]?
**A.** -0.425

**Q.** And the “glycan array binding signal (z-score)” value [15]?
**A.** -0.19

**Q.** And the “glycan array binding signal (z-score)” value [16]?
**A.** -0.065

**Q.** What about the “glycan array binding signal (z-score)” value [17] of the same binder?
**A.** -0.116

**Q.** And the “glycan array binding signal (z-score)” value [18]?
**A.** -0.192

**Q.** And the “glycan array binding signal (z-score)” value [19]?
**A.** -0.122

**Q.** And the “glycan array binding signal (z-score)” value [20]?
**A.** -0.1

**Q.** And the “glycan array binding signal (z-score)” value [21]?
**A.** -0.294

**Q.** And the “glycan array binding signal (z-score)” value [22]?
**A.** -0.263

**Q.** And the “glycan array binding signal (z-score)” value [23]?
**A.** -0.095

**Q.** What about the “glycan array binding signal (z-score)” value [24] of the same binder?
**A.** -0.22

**Q.** What about the “glycan array binding signal (z-score)” value [25] of the same binder?
**A.** -0.314

**Q.** What about the “glycan array binding signal (z-score)” value [26] of the same binder?
**A.** -0.023

**Q.** And the “glycan array binding signal (z-score)” value [27]?
**A.** -0.092

**Q.** What about the “glycan array binding signal (z-score)” value [28] of the same binder?
**A.** 0.299

**Q.** What about the “glycan array binding signal (z-score)” value [29] of the same binder?
**A.** 0.071

**Q.** What about the “glycan array binding signal (z-score)” value [30] of the same binder?
**A.** -0.375

**Q.** What about the “glycan array binding signal (z-score)” value [31] of the same binder?
**A.** -0.134

**Q.** And the “glycan array binding signal (z-score)” value [32]?
**A.** -0.216

**Q.** And the “glycan array binding signal (z-score)” value [33]?
**A.** -0.163

**Q.** And the “glycan array binding signal (z-score)” value [34]?
**A.** -0.123

**Q.** And the “glycan array binding signal (z-score)” value [35]?
**A.** -0.322

**Q.** What about the “glycan array binding signal (z-score)” value [36] of the same binder?
**A.** -0.073

**Q.** And the “glycan array binding signal (z-score)” value [37]?
**A.** -0.226

**Q.** What about the “glycan array binding signal (z-score)” value [38] of the same binder?
**A.** -0.306
